The supplement of paper PMC12217912
Some of the results follow. The full chains were built here from the parent and the listed change. Values near 0.05 are background.

B1: TEV protease; numbered along this chain (parent)
chain: MGESLFKGPRDYNPISSSICHLTNESDGHTTSLYGIGFGPFIITNKHLFRRNNGTLVVQSLHGVFKVKDTTTLQQHLVDGRDMIIIRMPKDFPPFPQKLKFREPQREERICLVTTNFQTKSMSSMVSDTSCTFPSGDGIFWKHWIQTKDGQCGSPLVSTRDGFIVGIHSASNFTNTNNYFTSVPKNFMELLTNQEAQQWVSGWRLNADSVLWGGHKVFMVKPEEPFQPVKEATQL

Variants of: B1
Experiment: raw area under fraction-flipped curve 0-4 h after induction (AUC4h, not background-subtracted), DNA-recorder readout of cleavage of the substrate (dimensionless); higher = more cleavage of the substrate by the protease variant
Details: temperature: 34 °C; time window: 0-4 h after rhamnose induction
Protocol: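 In vivo DNA recorder in E. coli TOP10(DE3) ΔrhaA at 34 °C. Each TEVp single-site mutant (parent TEVp 0) is paired with a single-site variant of the 7-mer TEVs (canonical ENLYFQ|S). The substrate sits between flexible linkers in a Bxb1-sfGFP-TEVs-SsrA fusion, so cleavage stabilises Bxb1 and speeds flipping of a recombination array, read by NGS. The value is the raw area under the fraction-flipped curve over 0-4 h after rhamnose induction (AUC4h), with ≥20 reads per time point. It is not background-subtracted; inactive controls average about 0.047.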
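Note: Bxb1 expression induced with 0.2% (w/v) L-rhamnose at OD600 near 0.5, cultures sampled hourly, flipped fraction per protease–substrate barcode pair counted by paired-end Illumina sequencing.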

Variant	area with substrate ENAYFQS	area with substrate ENCYFQS	area with substrate ENDYFQS	area with substrate ENEYFQS	area with substrate ENFYFQS	area with substrate ENIYFQS	area with substrate ENKYFQS	area with substrate ENQYFQS	area with substrate ENSYFQS	area with substrate ENTYFQS
P94V	0.0584	0.0693	0.0628	0.0643	0.0638	0.0999	0.0493	0.0474	0.0537	0.0485
P94N	0.0521	0.0652	0.0544					0.0711		0.0705
S121F	0.0597		0.0411		0.066			0.0453	0.0598	
S201C	0.0518	0.062		0.0511	0.0414	0.148		0.0657		
R81A	0.0632	0.0692	0.0646		0.0493		0.0529	0.0574	0.0597	0.0579
W203S	0.0515	0.0583		0.0676	0.0556	0.0691		0.054	0.0647	0.0531
I85H	0.0259	0.0614	0.0487	0.0407	0.0339	0.0569			0.0617	
L156Y	0.0559			0.0463					0.056	0.0618
L205S	0.0432		0.0395	0.0711	0.0765					
G35V	0.0544				0.0476			0.0407	0.0392	
V113K	0.0543	0.0745				0.0547		0.0396		
T147V	0.072		0.0651		0.0471	0.0925				0.0618
T159K	0.06	0.0969				0.11	0.0715	0.0549	0.0672	
I84H	0.053	0.0483	0.0516	0.0854	0.0515		0.0561	0.0539	0.0539	
Q97N	0.0708					0.108		0.0626	0.0628	
S154V	0.0626			0.0692				0.0434	0.0628	
S154A	0.0584	0.0674	0.0631	0.0658	0.0539	0.0972		0.056	0.0559	0.0648
S154I	0.0472		0.066			0.104			0.0998	

Variant	area with substrate ENAYFQS	area with substrate ENCYFQS	area with substrate ENDYFQS	area with substrate ENEYFQS	area with substrate ENFYFQS	area with substrate ENIYFQS	area with substrate ENKYFQS	area with substrate ENQYFQS	area with substrate ENSYFQS	area with substrate ENTYFQS
H76T	0.0611			0.0715		0.069	0.0573	0.0868	0.0622	0.0566
H215L	0.0381		0.067		0.0891	0.0838		0.0637	0.0541	0.0658
T119G	0.0676	0.0783			0.0568		0.0542			
N175A	0.0571	0.0662			0.0564	0.0683	0.0655	0.0721	0.0732	0.0481
N172A	0.0512	0.0527				0.0626	0.0763	0.0459		
K66W	0.031	0.0547	0.0343	0.0425	0.0569			0.0606		0.0618
K66Y	0.0691	0.0665	0.0552	0.0511	0.0438		0.0434	0.0684	0.0576	0.0598
M83R	0.0454		0.0477	0.0389				0.048		0.0489
M83L	0.0795			0.0597	0.0495	0.109		0.0815		0.0575
V67G	0.0555	0.0328	0.0457	0.0569	0.0069	0.0736		0.0456	0.033	0.0624
P89V	0.0355		0.0512					0.0629	0.05	
G138F	0.0663				0.0351		0.0673			0.0224
G138M	0.0896		0.0531	0.0709						
Q75D	0.0647	0.0529		0.0405	0.0535	0.064		0.0695	0.0812	
V229D	0.0446		0.0524	0.0494		0.159		0.0732	0.0729	
V229R	0.059		0.0642	0.052		0.0943	0.0815			0.0823
P222L	0.0483	0.0764	0.0423		0.0664	0.106				0.0692

Same assay, conditions: temperature: 34 °C; time window: 0-4 h after rhamnose induction

Variant	area with substrate ENVYFQS	area with substrate ENWYFQS	area with substrate ENYYFQS	area with substrate ENGYFQS	area with substrate ENMYFQS	area with substrate ENNYFQS	area with substrate ENPYFQS	area with substrate ENHYFQS	area with substrate ENRYFQS
P94V	0.103	0.054	0.082						
P94N			0.0689	0.0591	0.0816	0.0518	0.0586		
S121F	0.0873			0.0517			0.0582	0.0613	0.076
S201C			0.0734	0.0542	0.0699	0.0798		0.0671	
W203S		0.0434				0.0611	0.0598	0.0554	0.0587
I85H			0.0425		0.0588	0.047		0.0579	0.0445
L156Y	0.053		0.0518		0.0533	0.0513		0.0629	0.079
G35V		0.0658		0.0513	0.041			0.0603	
V113K	0.0532		0.0759				0.0542		0.0582
T147V							0.0622		0.0653
T159K		0.0052				0.0801		0.0625	0.0717
I84H	0.0514	0.0532		0.0506		0.0522	0.0653		0.0332
Q97N				0.0562				0.0256	
S154V	0.0482			0.0555	0.0836		0.0438		0.0654
S154A			0.0507		0.0634	0.0588	0.0695	0.0633	0.0667
S154I	0.0954			0.0571					
H76T								0.0558	

Variant	area with substrate ENVYFQS	area with substrate ENWYFQS	area with substrate ENYYFQS	area with substrate ENGYFQS	area with substrate ENMYFQS	area with substrate ENNYFQS	area with substrate ENPYFQS	area with substrate ENHYFQS	area with substrate ENRYFQS
H215L	0.0791	0.0398	0.0542	0.0569			0.0591		0.0559
T119G					0.115				
N175A	0.0619			0.0602	0.0917	0.0436		0.0587	0.0608
N172A	0.0554							0.0458	0.0613
K66W			0.0504		0.078			0.064	0.0486
K66Y		0.0769		0.0667				0.0449	0.05
M83R							0.0478		
M83L	0.0682					0.0687			
V67G				0.0407	0.0519	0.0315		0.0481	
P89V	0.0602					0.0447	0.0401		
G138F	0.0661			0.0605					
G138M						0.0608	0.0714		
Q75D	0.0629					0.0562	0.0643		0.0714
V229D				0.0536				0.064	
V229R			0.059				0.0276		0.0414
P222L				0.0583		0.0647	0.0646	0.0778	0.0819
